# Structures can show the parent of a compound that is named as a salt. ± gives the standard deviation of the averaged measurements. Over roughly 1,300 compounds, “normalised cell viability” has its median near 1; the lowest 2% begin near 0.14. Some of the results follow.
# Tested on: V-C8 (BRCA2-deficient hamster cells)
# Assay: normalised cell viability (fraction of plate median); higher = more viable cells (less toxic)
# Settings: 5 µM
# Summary of the method: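 Hamster V-C8 cells with and without restored BRCA2 were exposed in 96-well plates to library drugs at 5 μM for 3 days (screen 1) or 6 days (screen 2). Cell viability was scored by resazurin assay, then median-plate normalised, averaging triplicate wells.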
SMILES,normalised cell viability (treatment time: 3 days),normalised cell viability (treatment time: 6 days)
COP(=O)(OC)C(O)C(Cl)(Cl)Cl (configuration not stated) [Trichlorfon],0.974 ± 0.054,0.949 ± 0.049
C[C@]12C[C@H]3S[C@H]3C[C@@H]1CC[C@@H]1[C@@H]2CC[C@]2(C)[C@@H](O)CC[C@@H]12 [Epitiostanol],1.04 ± 0.012,1.033 ± 0.01
CCCC(C)C1(CC)C(=O)NC(=O)NC1=O (configuration not stated) [Pentobarbital],0.871 ± 0.066,1.1 ± 0.026
C[C@]12CCC(=O)C=C1C=C[C@@H]1[C@@H]2CC[C@@]2(C)[C@H]1CC[C@@]2(O)CCC(=O)O [Canrenoic acid potassium salt],1.08 ± 0.053,1.05 ± 0.036
C(#CCN1CCCC1)CN1CCCC1 [Tremorine dihydrochloride],1.09 ± 0.065,1.08 ± 0.06
c1ccc2c(c1)Nc1ccccc1S2 [Phenothiazine],1.05 ± 0.068,1.08 ± 0.071
O=c1c2ccccc2[se]n1-c1ccccc1 [Ebselen],1.08 ± 0.067,1 ± 0.036
CC(=O)O[C@H]1C[C@@H]2CC[C@@H]3[C@H](CC[C@@]4(C)[C@H]3C[C@H]([N+]3(C)CCCCC3)[C@@H]4OC(C)=O)[C@@]2(C)C[C@@H]1[N+]1(C)CCCCC1 [Pancuronium bromide],1 ± 0.058,1.08 ± 0.1
CN[C@@H]1[C@@H](O)[C@@H](O[C@@H]2[C@@H](O)[C@H](O[C@H]3O[C@H](CN)CC[C@H]3N)[C@@H](N)C[C@H]2N)OC[C@]1(C)O.CN[C@@H]1[C@@H](O)[C@@H](O[C@@H]2[C@@H](O)[C@H](O[C@H]3O[C@H]([C@@H](C)N)CC[C@H]3N)[C@@H](N)C[C@H]2N)OC[C@]1(C)O.CN[C@@H]1[C@@H](O)[C@@H](O[C@@H]2[C@@H](O)[C@H](O[C@H]3O[C@H]([C@@H](C)NC)CC[C@H]3N)[C@@H](N)C[C@H]2N)OC[C@]1(C)O [Gentamicine sulfate],0.961 ± 0.029,0.955 ± 0.039
"CN1CCC2(C)c3cc(O)ccc3N(C)C12 (single isomer, unassigned; (-)) [(-)-Eseroline fumarate salt]",0.706 ± 0.026,0.716 ± 0.21
CC(NC(C)(C)C)C(=O)c1cccc(Cl)c1 (configuration not stated) [Bupropion hydrochloride],0.925 ± 0.056,1.01 ± 0.12
CN1[C@@H]2C[C@@H](OC(=O)[C@H](CO)c3ccccc3)C[C@H]1[C@@H]1O[C@@H]12 [Scopolamine hydrochloride],0.993 ± 0.013,1.09 ± 0.059
C#C[C@]1(O)CC[C@H]2[C@@H]3CCC4=CC(=O)CCC4=C3C=C[C@@]21CC [Gestrinone],0.959 ± 0.038,0.9106 ± 0.0083
"NCC(CC(=O)O)c1ccc(Cl)cc1 (racemic) [Baclofen (R,S)]",0.931 ± 0.081,1.038 ± 0.0059
N[C@@H]1C[C@H]1c1ccccc1 [Tranylcypromine hydrochloride],0.988 ± 0.011,0.992 ± 0.039
CC(N)C(O)c1ccccc1 (configuration not stated) [Phenylpropanolamine hydrochloride],1.05 ± 0.047,1.03 ± 0.038
O=C(CCCN1CCC2(CC1)C(=O)NCN2c1ccccc1)c1ccc(F)cc1 [Spiperone],1.04 ± 0.048,1.04 ± 0.045
C=C1CC[C@@]2(O)[C@H]3Cc4ccc(O)c5c4[C@@]2(CCN3CC2CC2)[C@H]1O5 [Nalmefene hydrochloride],1.06 ± 0.035,1.03 ± 0.076
O=[N+]([O-])O[C@H]1CO[C@H]2[C@@H]1OC[C@H]2O[N+](=O)[O-] [Isosorbide dinitrate],0.926 ± 0.071,0.953 ± 0.042
NCC1(CC(=O)O)CCCCC1 [Gabapentin],1.027 ± 0.009,1.1 ± 0.027
CC(O)(CS(=O)(=O)c1ccc(F)cc1)C(=O)Nc1ccc(C#N)c(C(F)(F)F)c1 (configuration not stated) [Bicalutamide],0.986 ± 0.13,0.988 ± 0.012

SMILES,normalised cell viability (treatment time: 3 days),normalised cell viability (treatment time: 6 days)
CCOC(=O)c1cncn1[C@H](C)c1ccccc1 [Etomidate],0.935 ± 0.061,1.07 ± 0.1
Cc1cc(C(C#N)c2ccc(Cl)cc2)c(Cl)cc1NC(=O)c1cc(I)cc(I)c1O (configuration not stated) [Closantel],0.943 ± 0.024,0.943 ± 0.051
C[C@@H]1C[C@@H]([C@H](O)CC2CC(=O)NC(=O)C2)C(=O)[C@@H](C)C1 [Cycloheximide],0.132 ± 0.0063,0.142 ± 0.0068
CC[C@@H](CO)NC(=O)[C@@H]1C=C2c3cccc4[nH]cc(c34)C[C@H]2N(C)C1 [Methylergometrine maleate],1.03 ± 0.052,1.1 ± 0.055
O=c1[nH]oc2c1CCNC2 [THIP Hydrochloride],1.01 ± 0.067,1.03 ± 0.01
COc1cc2c(c(OC)c1OC)-c1ccc(OC)c(=O)cc1[C@@H](NC(C)=O)CC2 [Colchicine],0.167 ± 0.0023,0.143 ± 0.011
CC[N+]1(C)CCCC(OC(=O)C(O)(c2ccccc2)c2ccccc2)C1 (configuration not stated) [Pipenzolate bromide],1.08 ± 0.13,1.02 ± 0.18
c1ccc2c(c1)OCC(C1=NCCN1)O2 (configuration not stated) [Idazoxan hydrochloride],0.979 ± 0.029,0.917 ± 0.031
CCCCCC[C@H]1C(=O)O[C@H](C)[C@H](NC(=O)c2cccc(NC=O)c2O)C(=O)O[C@@H](C)[C@@H]1OC(=O)CC(C)C [Antimycin A],0.152 ± 0.0026,0.12 ± 0.011
CC(C)c1cccc(C(C)C)c1O [Propofol],1.06 ± 0.024,1.09 ± 0.018
C[C@]12CC[C@H](O)C[C@H]1CC[C@@H]1[C@@H]2CC[C@]2(C)[C@@H](C3=CC(=O)OC3)CC[C@]12O [Digitoxigenin],1.06 ± 0.044,1.1 ± 0.2
Oc1ccc2c3c1O[C@H]1[C@@H](O)CC[C@@]4(O)[C@@H](C2)N(CC2CCC2)CC[C@]314 [Nalbuphine hydrochloride],1.1 ± 0.1,1.06 ± 0.043
O=C(NCNC(=O)NC1C(=O)NC(=O)N1CO)NC1C(=O)NC(=O)N1CO (configuration not stated) [Imidurea],1.06 ± 0.039,1.03 ± 0.024
CC(=O)O[C@H]1CC[C@@]2(C)C(=CC[C@@H]3[C@@H]2CC[C@]2(C)C(=O)CC[C@@H]32)C1 [Dehydroisoandosterone 3-acetate],1.07 ± 0.021,0.995 ± 0.034
CN1C[C@H](CNC(=O)OCc2ccccc2)C[C@@H]2c3cccc4c3c(cn4C)C[C@H]21 [Metergoline],0.1447 ± 0.00066,0.133 ± 0.017
C[C@]12C/C(=C/O)C(=O)C[C@@H]1CC[C@@H]1[C@@H]2CC[C@@]2(C)[C@H]1CC[C@]2(C)O [Oxymetholone],1.122 ± 0.01,1.05 ± 0.052
CC(=O)[C@H]1CC[C@H]2[C@@H]3CC[C@H]4C[C@H](O)CC[C@]4(C)[C@H]3C(=O)C[C@]12C [Alfaxalone],1.06 ± 0.023,0.989 ± 0.053
C=C1C[C@@H]2[C@H](CC[C@]3(C)C(=O)CC[C@@H]23)[C@@]2(C)C=CC(=O)C=C12 [Exemestane],1.12 ± 0.14,0.939 ± 0.045
C[C@]12COC(=O)C[C@@H]1CC[C@@H]1[C@@H]2CC[C@@]2(C)[C@H]1CC[C@]2(C)O [Oxandrolone],1.12 ± 0.073,1.08 ± 0.072
O=P1(N(CCCl)CCCl)NCCCO1 (configuration not stated) [Cyclophosphamide],1.03 ± 0.035,1.1 ± 0.046
CN1C(=O)CCS(=O)(=O)C1c1ccc(Cl)cc1 (configuration not stated) [Chlormezanone],1.147 ± 0.0098,1.015 ± 0.0056

SMILES,normalised cell viability (treatment time: 3 days),normalised cell viability (treatment time: 6 days)
C=CCC1(CC(C)C)C(=O)NC(=O)NC1=O [Butalbital],1.1 ± 0.031,1.079 ± 0.0048
O=C(CCCN1CCC(n2c(=O)[nH]c3ccccc32)CC1)c1ccc(F)cc1 [Benperidol],0.93 ± 0.029,0.969 ± 0.083
C[C@@H]1CN([C@H]2CC[C@](C#N)(c3ccc(F)cc3)CC2)CC[C@]1(C(=O)O)c1ccccc1 [Levocabastine hydrochloride],0.9655 ± 0.0085,0.952 ± 0.046
COc1ccc(OC)c(C(O)C(C)N)c1 (configuration not stated) [Methoxamine hydrochloride],1.11 ± 0.11,1.02 ± 0.063
CCC(=O)O[C@H]1CC[C@H]2[C@@H]3CCC4=CC(=O)CC[C@]4(C)[C@H]3CC[C@]12C [Testosterone propionate],0.895 ± 0.057,0.975 ± 0.052
CCCC(C)(COC(N)=O)COC(=O)NC(C)C (configuration not stated) [Carisoprodol],1.08 ± 0.097,1.03 ± 0.12
CCC1(C)CC(=O)NC(=O)C1 [Bemegride],0.925 ± 0.075,1.06 ± 0.055
C[N+]1(C)CCCC(OC(=O)C(O)(c2ccccc2)c2ccccc2)C1 (configuration not stated) [Mepenzolate bromide],0.974 ± 0.054,1.08 ± 0.059
OC(c1ccccc1)(c1ccccc1)C1CCNCC1 [Azacyclonol],1.1 ± 0.083,1.01 ± 0.029
NC(=O)OCCCc1ccccc1 [Phenprobamate],1.14 ± 0.049,1.08 ± 0.15
O=c1[nH]c2ccccc2n1C1CCN(CCCC(c2ccc(F)cc2)c2ccc(F)cc2)CC1 [Pimozide],0.262 ± 0.033,0.391 ± 0.032
C#CCN(C)[C@H](C)Cc1ccccc1 [Selegiline hydrochloride],0.993 ± 0.052,1.03 ± 0.12
C[C@@H]1O[C@@H](O[C@@H]2C=C3CC[C@@H]4[C@H](CC[C@]5(C)[C@@H](c6ccc(=O)oc6)CC[C@]45O)[C@@]3(C)CC2)[C@H](O)[C@H](O)[C@H]1O [Proscillaridin A],0.945 ± 0.013,0.908 ± 0.11
C[C@]12CC[C@@H](O)C[C@H]1CC[C@@H]1[C@@H]2CC[C@]2(C)C(=O)CC[C@@H]12 [3-alpha-Hydroxy-5-beta-androstan-17-one],1.01 ± 0.023,0.99 ± 0.092
NCCCNCCSP(=O)(O)O [Amifostine],1.05 ± 0.037,1.04 ± 0.036
CC1OC(OC2/C=C/C=C/C=C/C=C/CC/C=C/C=C/[C@H](C)[C@@H](O)[C@@H](C)[C@H](C)OC(=O)CC(O)CC(O)CC(O)CCC(O)C(O)C[C@]3(O)CC(O)C(C(=O)O)C(C2)O3)C(O)C(N)C1O (some centres not stated) [Nystatine],1.06 ± 0.055,0.905 ± 0.084
NCCC(O)C(=O)NC1CC(N)C(OC2OC(CN)C(O)[C@H](O)[C@@H]2N)[C@H](OC2O[C@H](CO)[C@@H](O)[C@@H]2O)[C@@H]1O (some centres not stated) [Butirosin disulfate salt],1.04 ± 0.023,1.08 ± 0.083
CCC1=C[C@H]2CN3CCc4c([nH]c5ccccc45)[C@](C(=O)OC)(C2)[C@H]13 [Catharanthine],1.01 ± 0.051,0.929 ± 0.1
CC(C)C[C@H]1C(=O)N2CCC[C@H]2[C@]2(O)O[C@](NC(=O)[C@@H]3C=C4c5cccc6[nH]c(Br)c(c56)C[C@H]4N(C)C3)(C(C)C)C(=O)N12 [Bromocryptine mesylate],0.833 ± 0.034,0.905 ± 0.037

# Reference: the supplement of paper PMC6609913
